Structures are written as SMILES. Screen size: about 50,000 compounds; about 800 (1.6%) showed an effect of 50% or more. The list shows a part of the results.

The assay has as its target Bcl-2-like protein 10 (Homo sapiens) (UniProt Q9HD36). The assay can be described thus: TR3 peptide-Bcl-B binding displacers, biochemical primary FP assay, phenotype converters (AID 1240).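 Further: 0% = Bcl-B with tracer peptide and DMSO and 100% = tracer peptide lacking Bcl-B.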 To be noted: GST-Bcl-B / FITC-TR3 peptide fluorescence polarization; stronger effect = higher value; compound at 3.75 mg/L. A general note: Fluorescence polarisation rises when a labelled molecule tumbles more slowly, as on binding a larger partner.
UniProt Q9HD36, sequence (Q9HD36 whole entry, looked up): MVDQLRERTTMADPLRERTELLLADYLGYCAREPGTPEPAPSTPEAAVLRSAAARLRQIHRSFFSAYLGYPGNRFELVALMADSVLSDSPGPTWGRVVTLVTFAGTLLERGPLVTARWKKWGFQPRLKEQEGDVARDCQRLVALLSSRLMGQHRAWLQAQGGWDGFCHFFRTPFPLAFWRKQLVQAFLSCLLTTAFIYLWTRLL
Consider `CCOC(=O)NC(NC(=O)OCC)c1ccc(OC)c(OC)c1`, for which the displacement was -8.4%.
Next, `COc1ccc(Br)cc1CN1CCN(Cc2cccn2C)CC1`: 1.7%; `COc1ccccc1/C=C1\SC(=S)N(CCC(=O)Nc2cccc(C)c2)C1=O`: -10.4%; `COc1ccc(CC/C(=N\O)C2(O)CCCCC2)cc1`: -3.4%.
To `COc1ccc(-n2c(CCN3C(=O)c4ccccc4C3=O)nc3ccccc3c2=O)cc1` belongs -11.1%; to `Cc1c(C(=O)Nc2ccccc2CO)cccc1[N+](=O)[O-]`, -1.3%.
Next, `COc1cc2c(cc1OC)-c1nnnn1C(C)(C)C2`: -7.9%.
Take `COC(=O)CCN1C(=O)/C(=C\c2ccc(F)cc2)SC1=S`: the displacement turned out to be 36.9%.
For the molecule `Cc1ccc2nc(-c3ccc(NC(=O)c4ccccc4-c4ccccc4C(=O)O)cc3)sc2c1`, the displacement was found to be 7.9%.
To `Cc1c(OCc2ccc([N+](=O)[O-])cc2)ccc2c3c(c(=O)oc12)CCCC3` belongs 0.6%; to `O=C(CNC(=O)c1cccc(F)c1)N=Nc1c(O)n(Cc2ccc3c(c2)OCO3)c2ccccc12`, 2.3%.
To `CCNC(=O)CC1S/C(=N\N=C\c2ccco2)NC1=O` (stereo not given) belongs 9.2%; to `CCOC(=O)c1c(NC(=O)/C=C/c2cccs2)sc(C(C)=O)c1C`, -49.8%.
Next, `Cc1ccc(Nc2cc(=O)[nH]c(=O)[nH]2)cc1`: 3.9%.
With `O=C1NC(=Nc2ccc(O)cc2)S/C1=C/c1ccccc1`, the displacement came to 1.1%.
On to `O=C1C2=C(c3ccccc31)C(c1ccncc1)Nc1ccc3ccccc3c12` (stereo not given), for which the displacement was 10.4%.
Next, `O=C(CC1S/C(=N\N=C\c2ccccc2)NC1=O)Nc1ccc(Cl)cc1Cl` (stereo not given): 4.7%; `CCn1c2ccccc2c2cc(CN3CCN(C(=O)c4ccncc4)CC3)ccc21`: 8.5%.
Take `O=C(/C=C/c1cccc(C(F)(F)F)c1)Nc1cccc2cccnc12`: the displacement was 15.9%.
To `Cc1ccc(N(Cc2ccc(C(=O)N/N=C/c3ccc(OC4CSC4)cc3)cc2)S(C)(=O)=O)cc1C` belongs -2.4%; to `FC(F)(F)c1ccc2nnc(-c3cccc(OCc4ccccc4)c3)n2c1`, 14%.
To `O=C(O)COc1ccc(N2C(=O)c3c(Cl)c(Cl)c(Cl)c(Cl)c3C2=O)cc1` belongs 17.7%; to `CCOc1ccc(C(=O)Nc2cc(Cl)ccc2C(=O)O)cc1`, 10%.
Regarding `COc1cc(/C=C2\C(=O)NC(=O)N(c3ccc(Cl)cc3)C2=O)cc(I)c1OC`, the displacement was determined as 10.9%.
On to `Cc1ccc(C(=O)COc2ccc3c(C)cc(=O)oc3c2)cc1`, for which the displacement is 8%.
`Cc1n[nH]c(C)c1Sc1ccccc1N=Cc1ccc(C(C)C)cc1`: the displacement turned out to be 4.4%.
Next, `O=C(COc1ccccc1)Nc1ccc(Br)cn1`: 1.8%; `CC(NC(=O)CCC(=O)NC(C)C1COc2ccccc2O1)C1COc2ccccc2O1` (stereo not given): 6.9%; `CCc1ccc(CN2CCN(Cc3cccc(OC)c3OC)CC2)cc1`: -7.7%.
Regarding `CN(C)c1ccc(/C=C/C(=O)C2C(=O)CCC2=O)cc1`, the displacement is -38.6%.
To `CS(=O)(=O)N(CC(=O)NCCc1ccccc1)c1cccc(C(F)(F)F)c1` belongs 7.1%; to `CCOC(=O)C1=C(O)/C(=C/c2cc(OC)c(OC)c(OC)c2)SC1=Nc1ccc(C)cc1`, -5.5%.
For the molecule `O=c1/c(=C/c2cccc([N+](=O)[O-])c2)sc2nnc(-c3ccccc3)n12`, the displacement is -3.6%.
Next, `COc1ccc(NC(=O)O/N=C\c2ccc(Br)cc2)cc1`: 9.9%.
Next, `O=C(Nc1ccc2c(c1)OCCO2)C1c2ccccc2Oc2ccccc21`: -6.3%; `COc1ccc(-n2c(SCc3ccccc3)nc3sc4c(c3c2=O)CCC4)cc1`: -7.2%; `CCOC(=O)C1=CS/C(=C2/C(=S)C(C)(C)Nc3cc(C)ccc32)S1`: 15%.
Next, `COC(=O)c1cccc(S(=O)(=O)N2CCOCC2)c1`: -16%; `C=CCc1ccccc1OCCOc1c(Cl)cc(/C=N/n2cnnc2)cc1OCC`: 2.2%; `O=C1NCc2ccccc2C1(c1ccc(F)cc1)c1ccc(F)cc1`: -3.4%.
Turning to `Cc1nc(=O)c(-c2ccccc2)c(C)n1-c1ccc(C(=O)O)c(O)c1`, the displacement was -8.9%.
To `O=C(Nc1ccc(S(=O)(=O)N2CCc3ccccc32)cc1)c1ccc(F)cc1` belongs -13.5%; to `COc1ccc(S(=O)(=O)N2CCN(CCN3C(=O)c4cccc5cccc(c45)C3=O)CC2)cc1[N+](=O)[O-]`, 12.9%.
On to `CCc1c(C)nc(N)nc1N1CCOCC1`, for which the displacement was -2.7%.
Consider `O=C(CC(=O)c1ccccc1)Nc1cccnc1`, for which the displacement was -0.1%.
`CCc1ccc(NC(=O)CCc2ccccc2)cc1`: the displacement stood at 0.2%.
`COc1ccc(C=C2C=C(C(C)(C)C)C(=O)C(C(C)(C)C)=C2)cc1OC`: the displacement was -7.3%.
To `CCOC(=O)CCNC(=O)c1ccccc1Cl` belongs 7.7%; to `C=CCn1c(O)c(C2=c3ccccc3=NC2=O)s/c1=N\S(=O)(=O)c1ccc([N+](=O)[O-])cc1`, -1.4%; to `CCOC(=O)C1=C(O)/C(=C/c2cccc(O)c2)SC1=Nc1cccc(Cl)c1`, -5.2%.
As for `CCOc1cc(/C=C(\C#N)C(=O)NC(C)c2ccccc2)ccc1O` (stereo not given), the displacement was -11.4%.
Next, `CC12CCCCC1C2C(=O)N/N=C\c1ccc(-c2ccc(C(=O)O)cc2)o1` (stereo not given): -5%; `O=C1c2ccccc2C(=O)N1c1ncn[nH]1`: -9%; `O=C1C(=O)N(c2ccccn2)C(c2cccc(Br)c2)/C1=C(\O)c1ccc(Cl)cc1` (stereo not given): 18.4%.
In the case of `O=C(COc1ccc(Cl)cc1)Nc1ccc(Oc2ccccc2)cc1`, the displacement worked out at 1.8%.
`NC(=S)N/N=C/c1ccc(-c2ccc(Cl)c(Cl)c2)o1`: the displacement is -16%.
To `O=C(CSc1nc2ccc(N3C(=O)c4ccccc4C3=O)cc2s1)c1ccc(Cl)cc1` belongs -4.7%.
Next, `Cc1ccc2[nH]c3nc(NN)nnc3c2c1`: 4.9%; `Cc1ccc(S(=O)(=O)NNc2ccccc2[N+](=O)[O-])cc1`: -9.6%.
As to `Cc1ccc(S(=O)(=O)N(C)CCCC(=O)Nc2ccc(C)cc2C)cc1`, the displacement was 13.1%.
With `CCOc1ccc2nc(NC3=NCCC(=O)N3)nc(C)c2c1`, the displacement was 10%.
Next, `CCCc1nc2c(o1)CC(CC(C)SCC)CC2=O` (stereo not given): 0.2%; `COc1ccc(NC(=O)c2cccnc2)cc1OC`: -3%; `N/C(=N\c1nc2ccccc2o1)NC(=O)c1cccc(F)c1`: -27.8%.
To `CC(NC(=S)NCc1ccccc1)C1COc2ccccc2O1` (stereo not given) belongs -5.1%.
Regarding `COc1cc(C2Nc3ccccc3C(=O)N2c2ccc(C)cc2)ccc1O` (stereo not given), the displacement is 11%.
On to `CCOc1cc(OCC)cc(C(=O)Nc2cccc3ccccc23)c1`, for which the displacement came to 14.4%.
Regarding `C=CCNC(=O)COc1ccccc1C`, the displacement is -15.2%.
For the molecule `O=[N+]([O-])c1ccc(N2CCCCC2)c(Cl)c1N1CCCCC1`, the displacement was -10.4%.
To `CN(C)NC1S/C(=C/C(=O)O)C(=O)N1c1ccccc1` (stereo not given) belongs 7.8%; to `CCOc1ccccc1NC(=O)c1ccc2c(c1)C(=O)N(CC(C)C)C2=O`, 13.8%.
To `CCOc1ccc(CNc2cccc(SC)c2)cc1` belongs -4.2%; to `CCN(CC)CCSc1nc2sc3c(c2c(=O)n1-c1ccc(OC)cc1)CCCC3`, -21%.
Turning to `Nc1ccc(C(=O)c2ccc(N)c(N)c2)cc1N`, the displacement stood at 1%.
As to `O=C(NCCCNc1ccc([N+](=O)[O-])cc1)C(c1ccccc1)c1ccccc1`, the displacement is 1.1%.
For the molecule `CC(C)c1cc(NS(=O)(=O)c2ccccc2[N+](=O)[O-])cc(C(C)C)c1O`, the displacement came out at 15.1%.
To `CCCCCCCCn1c(C)cc(=O)[nH]c1=O` belongs 16.6%; to `COC(=O)C1=C(O)/C(=C\c2ccc([N+](=O)[O-])cc2)N=C1C`, -1%.
Next, `Cc1cc2nn(-c3ccccc3)nc2cc1NC(=O)c1ccc(Br)cc1`: 8.5%; `COc1ccc(-c2nnc(Nc3ccc(C)cc3)c3ccccc23)cc1`: 3.4%; `CCn1c2ccccc2c2nnc(N/N=C/c3cccc(I)c3)nc21`: -4.2%.
As to `Cc1ccc(NC(=O)c2ccc(I)cc2)cc1C`, the displacement stood at 6.4%.
To `Cc1ccc(-n2c(C)cc(/C=N/NC(=O)CN3CCOCC3)c2C)cc1C` belongs -8.4%.
Next, `CCCOc1ccc(N2C(=O)CC(N(CCc3ccc(OC)c(OC)c3)C(C)=O)C2=O)cc1` (stereo not given): 0.6%; `COc1cc(C(=O)NN2C(=O)/C(=C/c3ccccc3)SC2=S)ccc1O`: -12.9%.
In the case of `CCOC(=O)c1ccc(NC2=C(N3CCCCC3)C(=O)c3ccccc3C2=O)cc1`, the displacement came to 10.2%.
To `CCOC(=O)C1=C(C)N=c2s/c(=C\c3cccnc3)c(=O)n2C1c1ccc(OC)cc1` (stereo not given) belongs 6.5%; to `COc1ccc(C2CC(=O)C3=C(C2)Nc2ccccc2NC3c2cccc(F)c2)cc1OC` (stereo not given), -1.9%; to `CC(C)(C)CC(C)(C)NC(=O)CSc1nnc(-c2ccco2)n1-c1ccccc1`, -6%.
To `O=[N+]([O-])c1ccc2c(c1)S(=O)(=O)NC2=NCCCN1CCOCC1` belongs -6.5%.
As to `CCCc1nnc(NC(=O)COC(=O)/C=C/c2ccco2)s1`, the displacement is -6%.
To `CCCCCOC(=O)C1=C(C)NC(=O)NC1c1ccc(Br)cc1` (stereo not given) belongs 8.5%; to `Cc1ccc(C2OC(=O)c3ccccc32)cc1` (stereo not given), 11.4%; to `COc1cc(C2NC(=O)NC(C)=C2C(=O)Nc2ccc(C)cc2)cc(OC)c1OC` (stereo not given), 5.9%.
To `CCOC(=O)c1sc(NC(=O)c2cncc(Br)c2)c(C(=O)OCC)c1C` belongs 9.2%; to `CN1C(=O)/C(=C\c2ccc3c(c2)OCO3)OC1=S`, -4.6%.
Next, `N=C1S/C(=C\c2ccc(-c3ccc(F)cc3)o2)C(=O)N1c1ccc2c(c1)OCO2`: 11.6%; `O=C(CN(c1cccc([N+](=O)[O-])c1)S(=O)(=O)c1ccccc1)NCc1ccco1`: -1.1%; `CC1(C)CC(NC(=O)c2ccccc2Cl)CC(C)(C)N1`: -9.3%.
As to `COc1ccc2nc(NC(=S)NC(=O)c3ccc(Cl)cc3)sc2c1`, the displacement worked out at 11.2%.
Take `CC1(C)C/C(=N\N)c2cc(=O)[nH]nc2C1`: the displacement was 3.7%.
Next, `Cc1cc(-n2c(C)cc(C=O)c2C)ccc1I`: -15.5%; `O=C(NCCCn1ccnc1)c1cnn2c(C(F)(F)F)cc(-c3ccc(Br)cc3)nc12`: 11.8%; `Cc1ccc(S(=O)(=O)NCCOc2ccc(Cl)cc2)cc1[N+](=O)[O-]`: 14.6%.
For the molecule `CC(C)=C1C(=O)NN(c2cccc(Br)c2)C1=O`, the displacement was 29%.
`CCOc1ccc(-c2cc(C)n3nc(C(=O)Nc4cccc(O)c4)cc3n2)cc1`: the displacement turned out to be 2.3%.
Next, `COc1ccc(CC(=O)NC(C)C2COc3ccccc3O2)cc1OC` (stereo not given): -4.2%; `COc1cccc(OC)c1C(=O)NCc1ccc(S(N)(=O)=O)cc1`: 17.8%.
Next, `CCc1ccc(NC(=O)c2cnccn2)cc1`: 5.9%.
To `COc1ccccc1C1CC(=O)Nc2ccc3ccccc3c21` (stereo not given) belongs -4.1%.

Source of the values: PubChem BioAssay AID1240 (Sanford-Burnham Center for Chemical Genomics, 2008).
